# Laboratory results taken from PubChem BioAssay AID588342 (National Center for Advancing Translational Sciences (NCATS), 2011).
# Screen size: about 360,000 compounds; about 25,000 (6.9%) were called active. Inconclusive results, whose numbers are uncertain, are shown with a selection of clear calls. Calls follow the shape of the dose curve; as a rule, active = well fitted inhibition curve with a large enough effect; inconclusive = small, poorly fitted or top-dose-only effect; inactive = flat fitted curve, though single readings scatter. Potencies beside an inconclusive call are fits to weak or partial responses and may not hold up.
# Molecular target: Luciferin 4-monooxygenase (Photinus pyralis) (UniProt P08659)
# Chain of UniProt P08659 (P08659 whole entry, looked up): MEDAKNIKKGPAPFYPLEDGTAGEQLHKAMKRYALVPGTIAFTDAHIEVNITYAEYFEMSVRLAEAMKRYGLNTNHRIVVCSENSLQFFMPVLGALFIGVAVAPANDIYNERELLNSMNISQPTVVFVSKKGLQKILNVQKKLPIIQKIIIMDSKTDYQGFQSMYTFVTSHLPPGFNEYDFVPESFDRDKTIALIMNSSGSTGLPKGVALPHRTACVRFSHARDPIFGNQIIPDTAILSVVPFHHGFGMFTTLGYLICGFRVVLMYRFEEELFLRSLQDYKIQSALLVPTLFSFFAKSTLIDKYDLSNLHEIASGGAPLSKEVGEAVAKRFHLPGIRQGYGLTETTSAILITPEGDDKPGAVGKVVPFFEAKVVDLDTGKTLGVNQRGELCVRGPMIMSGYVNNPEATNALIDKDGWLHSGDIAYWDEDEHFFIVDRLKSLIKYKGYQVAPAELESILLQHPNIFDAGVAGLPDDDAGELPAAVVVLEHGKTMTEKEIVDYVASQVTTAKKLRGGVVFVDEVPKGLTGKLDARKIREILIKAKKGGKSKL
# Assay: qHTS profiling assay for firefly luciferase inhibitor/activator using purifed enzyme and Km concentrations of substrates (counterscreen for miR-21 project); also: nearly all actives have a fitted effect of over 55% in size
# Conditions: purified FLuc, luminescence inhibition; series mostly up to 57.5 µM
# How it was run: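 Biochemical qHTS of compounds, final roughly 60 µM downward over six points, against 10 nM purified firefly luciferase using Km concentrations of substrates (10 uM D-luciferin, 10 uM ATP) in Tris acetate pH 7.5 buffer; luminescence output.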
# Potency is read from the fitted curve at half-maximal effect; tags tell the direction and shape of the fitted curve.
row,Compound,Potency
1,Cc1ccc(NC(=O)CSc2ccc(Br)cc2)cc1S(=O)(=O)N1CCOCC1,"inconclusive: 16.9 µM [inhibitor, partial curve]"
2,CC(C)(C)c1ccc(C(=O)Nc2ccc(C=C(C#N)C#N)cc2)cc1,active: 4.78 µM
3,COc1ccc(Cl)cc1-c1nc(SCC(=O)NCCN2C(=O)CSC2=O)n[nH]1,inactive
4,Cc1cc(C)cc(NS(=O)(=O)c2ccc3[nH]cc(C(=O)N(C)Cc4ccccc4)c(=O)c3c2)c1,"inconclusive: 8.49 µM [inhibitor, partial curve]"
5,C=CCOc1ccc(/C=C2\N=C(C)OC2=O)cc1OC,"inconclusive: 23.9 µM [inhibitor, partial curve, poor fit]"
6,C=CCc1ccc(OCc2ccc(C(=O)O)o2)c(OC)c1,active: 4.78 µM
7,CCc1c(C)sc(NC(=O)c2cc(C3CC3)on2)c1C#N,"inconclusive: 23.9 µM [inhibitor, partial curve, poor fit]"
8,COC(=O)C1CC(=O)N(c2ccc(OCc3ccccc3Cl)cc2)C1 (stereo not given),"inconclusive: 26.9 µM [inhibitor, partial curve, poor fit]"
9,Cc1c(-c2ccc(Br)cc2)nc2ccccn12,active: 2.39 µM
10,O=C(CCSc1ccccc1)NCCSCc1ccco1,active: 19 µM
11,Cc1cc(=O)oc2cc(NS(=O)(=O)c3ccccc3)ccc12,"inconclusive: 37.9 µM [inhibitor, partial curve, poor fit]"
12,Cc1ccc2c(c1)sc1nc(=O)n(-c3ccccc3)c(=O)n12,"inconclusive: 37.9 µM [inhibitor, partial curve, poor fit]"
13,CCCCC(=O)NC(=S)NNS(=O)(=O)c1ccccc1,inactive
14,CCCn1c(C)cc(/C=C(\C#N)C(=O)OCC(=O)N(C)c2c(N)n(Cc3ccccc3)c(=O)[nH]c2=O)c1C,active: 10.7 µM
15,CCOC(=O)c1ccc(NC(=O)NCc2ccccn2)cc1,inactive
16,Nc1nc(CSc2ccccc2)nc(N2CCCCC2)n1,"inconclusive: 37.9 µM [inhibitor, single point]"
17,CCCC(=O)C1=C(O)C(c2cccc(Oc3ccccc3)c2)CCC1=O (stereo not given),"inconclusive: 23.9 µM [inhibitor, partial curve]"
18,CN(CC(=O)Nc1cccc(S(=O)(=O)NC2=NCCC2)c1)Cc1cccc(F)c1,inactive
19,Cc1ccc(COC(=O)c2nn(-c3ccccc3)nc2N)cc1,"inconclusive: 23.9 µM [inhibitor, partial curve]"
20,C/C=C/c1ccccc1OCc1ccc(C(=O)OC)o1,"inconclusive: 37.9 µM [inhibitor, partial curve, poor fit]"
